Data as given in paper PMC10872421 (Journal of molecular and cellular cardiology, 2023).

Each binder was assayed against T1, FMAL-labeled F-actin (rabbit, UniProt P68135, fluorescein-5-maleimide (FMAL) on cys374 (10% of the monomers labelled)) (assay: co-sedimentation).

Binder | fold increase of EC50 upon phosphorylation
C0-C2^cys330, PKA-phosphorylated (domain or fragment, tetramethylrhodamine-5-maleimide (TMR) on cys330; phosphorylated by PKA in the M-domain (serines S275, S284, S304, S311)) not shown | 1.1 fold

What follows are binders tested against T1, FMAL-labeled F-actin (assay: FRET or BRET).

Binder | fold change of EC50 upon phosphorylation
C0-C2^cys330, PKA-phosphorylated (domain or fragment, tetramethylrhodamine-5-maleimide (TMR) on cys330; phosphorylated by PKA in the M-domain (serines S275, S284, S304, S311)) not shown | 2.8 fold

Target: T1, FMAL-labeled F-actin
Test: FRET or BRET
Remark: another data set of the same source

Binder | FLT-FRET at 2.5 μM relative to WT
C0-C2^(cys85, T59A) (domain or fragment, tetramethylrhodamine-5-maleimide (TMR) on cys85) not shown | 0.97 relative to WT
C0-C2^(cys330, T59A) (domain or fragment, tetramethylrhodamine-5-maleimide (TMR) on cys330) not shown | 1.21 relative to WT
C0-C2^(cys330, T59A), PKA-phosphorylated (domain or fragment, tetramethylrhodamine-5-maleimide (TMR) on cys330; phosphorylated by PKA in the M-domain (serines S275, S284, S304, S311)) not shown | 0.98 relative to WT
C0-C2^(cys85, R282W) (domain or fragment, tetramethylrhodamine-5-maleimide (TMR) on cys85) not shown | 1.03 relative to WT
C0-C2^(cys330, L349R), PKA-phosphorylated (domain or fragment, tetramethylrhodamine-5-maleimide (TMR) on cys330; phosphorylated by PKA in the M-domain (serines S275, S284, S304, S311)) not shown | 2.66 relative to WT
C0-C2^(cys85, L352P) (domain or fragment, tetramethylrhodamine-5-maleimide (TMR) on cys85) not shown | 1.36 relative to WT
C0-C2^(cys249, L352P) (domain or fragment, tetramethylrhodamine-5-maleimide (TMR) on cys249) not shown | 1.21 relative to WT
C0-C2^(cys330, L352P) (domain or fragment, tetramethylrhodamine-5-maleimide (TMR) on cys330) not shown | 1.31 relative to WT
C0-C2^(cys85, L352P), PKA-phosphorylated (domain or fragment, tetramethylrhodamine-5-maleimide (TMR) on cys85; phosphorylated by PKA in the M-domain (serines S275, S284, S304, S311)) not shown | 2.27 relative to WT
C0-C2^(cys249, L352P), PKA-phosphorylated (domain or fragment, tetramethylrhodamine-5-maleimide (TMR) on cys249; phosphorylated by PKA in the M-domain (serines S275, S284, S304, S311)) not shown | 1.74 relative to WT
C0-C2^(cys330, L352P), PKA-phosphorylated (domain or fragment, tetramethylrhodamine-5-maleimide (TMR) on cys330; phosphorylated by PKA in the M-domain (serines S275, S284, S304, S311)) not shown | 2.6 relative to WT
